The campaign covered roughly 48,000 compounds. About 120 (0.25%) were called active. Inconclusive results (about 4%) are left out. Calls come from the whole dose curve; as a rule, active = well fitted activation curve with a large enough effect; inconclusive = small, poorly fitted or top-dose-only effect, or another doubt; inactive = no such curve, though single readings can be large or run the other way. This is one part of the list.
Assay: Primary qHTS for Identification of Small Molecule Activators of Huntingtin-Antisense Promoter Activity; note: nearly all actives have a fitted effect of over 55% in size
Conditions: HEK293 HTT-AS promoter firefly luciferase reporter, 24 h; series mostly up to 57.5 µM; activity change, positive = activation: at the top concentration
How it was run: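 HEK293 cells carrying firefly luciferase reporters were seeded at 2,500 per well in Opti-MEM and cultured for 24 h. They were then treated with compounds at up to 57.5 uM final for 24 h at 37 degrees C before Dual-Glo luminescence readout.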

Activity change, positive = activation, inactive:
CCc1cccc(NC(=O)Cn2ccn3nc(-c4ccc(OC)c(OC)c4)cc3c2=O)c1 -1.48%
Cc1ccccc1NC(=O)Cn1cc(S(=O)(=O)N2CCCC2)c(S(=O)(=O)N2CCCC2)c1 10.7% [at 11.5 µM, percent change from vehicle, -100% = no light]
CC1=C(C(=O)Nc2ccccc2)C(c2ccccn2)n2nc(SCc3ccccc3Cl)nc2N1 (stereo unspecified) -4.32%
CCOc1ccc(NC(=O)c2nnn(-c3ccc(F)c(Cl)c3)c2C)cc1 -18.5%
COC(=O)c1ccc(Oc2nc3c(c(=O)n(C)c(=O)n3C)n2Cc2ccc(Cl)c(Cl)c2)cc1 -9.07%
COc1ccc(NC(=O)c2oc3ccccc3c2NC(=O)C23CC4CC(CC(C4)C2)C3)cc1 -19.1%
COc1ccc(OC)c(NC(=O)c2c(NCc3ccc(N(C)C)cc3)sc3c2CCCC3)c1 -15.7%
COc1ccc(S(=O)(=O)N(CC(=O)Nc2ccc3c(c2)OCO3)c2ccc(C)cc2)cc1 -24.6%
O=C(NCc1ccccc1Cl)c1ccc(NC(=O)N2CCSc3ccccc32)cc1 -11.5%
COc1cc(OC)cc(C(=O)Nc2ccc3c(c2)n(C)c(=O)c(=O)n3C)c1 -11.6%
Cc1ccc(OCc2cc(=O)n3c4c(sc3n2)CCCC4)cc1C -2.37%
Cc1ccc(C)c(Cn2c(=O)n(-c3ccc(F)cc3)c(=O)c3sc4ccccc4c32)c1 -3.64%
Clc1cccc(-n2ncc3c(Nc4ccc5c(c4)OCCO5)ncnc32)c1 3.11%
COc1ccc(N2CCN(C(=O)Cn3c(-c4cccs4)cc4ccccc43)CC2)cc1 -14.7%
CC(=O)N1CCc2cc(S(=O)(=O)NC(Cc3ccccc3)C(=O)Nc3ccc(C)cc3C)ccc21 (stereo unspecified) -23.6%
O=C(CSc1nc2ccsc2c(=O)n1Cc1ccccc1F)NCc1ccccc1Cl -34.2%
O=C(Nc1cccc(Cl)c1Cl)c1cc(S(=O)(=O)N2CCCc3ccccc32)ccc1F -27.9%
CCC(=O)N1CCCc2cc(S(=O)(=O)N3CCC(C(=O)Nc4cccc(Cl)c4)CC3)ccc21 -31.1%
Cc1ccc(C(=O)Nc2ccc3oc(-c4cc(Br)ccc4Cl)nc3c2)cc1 -2.5% [at 11.5 µM, percent change from vehicle, -100% = no light]
O=c1cc2nc(-c3ccccc3)nc(SCCOc3ccc(Cl)cc3)n2[nH]1 -22.9%
CCOC(=O)c1cnc2c(C)cc(C)cc2c1Nc1ccccc1OCC 21.1%
COc1ccc(C(=O)Nc2ccc3oc(-c4cc(Cl)ccc4Cl)nc3c2)cc1Br -5.04%
CCCN(C(=O)Cn1ncc2c([nH]c3ccccc32)c1=O)c1ccc(F)cc1 -41.5%
COc1ccc2c(c1)c(=O)c(S(=O)(=O)c1ccccc1)cn2CC(=O)Nc1ccc2c(c1)OCO2 2.26%
CCOC(=O)C1CCCN(C(=O)c2ccc3c(c2)N(Cc2ccccc2F)C(=O)c2ccccc2S3=O)C1 (stereo unspecified) -16.6%
COc1ccc(CCNC(=O)CCn2c(=O)c3ccccc3n(CC(=O)Nc3cc(Cl)ccc3C)c2=O)cc1OC -6.69%
CC(=O)c1cccc(NC(=O)CCCSc2nc(-c3ccco3)cc(C(F)(F)F)n2)c1 -8.33%
COC(=O)C1C2CC3c4[nH]c5cc(OC)ccc5c4CCN3CC2CC(OC(=O)c2cc(OC)c(OC)c(OC)c2)C1OC (stereo unspecified) -6.75%
CCc1ccccc1NC(=O)Nc1cc(C(=O)NCc2ccccc2OC)ccc1N1CCCC1 -1.33%
CCOC(=O)C(C)(C)Oc1ccc(Cl)cc1
COc1ccc(NC(=O)CN2C(=O)C(c3ccc(C)cc3)=NC23CCCCCC3)cc1Cl -24.7%
Cc1ccc(NC(=O)c2ccc(CNS(=O)(=O)c3ccc4c(c3)C(C)(C)C(=O)N4C)cc2)cc1 -33.8%
COc1cccc(-c2nc(SCC(=O)NCC3CCCO3)c(-c3ccc(Cl)cc3)[nH]2)c1 (stereo unspecified) -28.4%
CN(C)CCNC(=O)C(=O)NCC(c1cccnc1)N1CCN(c2ccccc2)CC1 (stereo unspecified) -7.53%
CN1CCN(C(=O)c2ccc3c(c2)N(Cc2ccc(Cl)cc2)C(=O)c2ccccc2S3(=O)=O)CC1 -16.2%
O=C(c1ccccc1Br)N(Cc1ccccc1F)C1CCS(=O)(=O)C1 (stereo unspecified) -3.1%
CCC(C)NC(=O)CSCc1nc(-c2ccc(C)cc2)oc1C (stereo unspecified) -18.6%
Cc1cccc(CC(=O)NCCc2sc3nc(-c4ccc(F)cc4)nn3c2C)c1 -3.05%
CCOc1ccc(CCNC(=O)c2ccc(-c3nc(CSc4ccccc4)c(C)o3)cc2)cc1 16.6%
COc1ccc(OCC(=O)N(Cc2ccc(C)o2)C2CCS(=O)(=O)C2)cc1 (stereo unspecified) -3.45%
CCc1ccc(N(CC)C(=O)c2sc3nc4n(c(=O)c3c2C)CCCC4)cc1 -18.7%
COc1ccccc1NC(=O)CN1C(=O)CCSc2ccccc21 -13.7%
Cc1ccc(Cl)cc1NC(=O)CSCc1cnn(-c2ccccc2)c1-n1cccc1 -22.4%
O=C(Cn1c(=O)ccc2cc(S(=O)(=O)N3CCCC3)ccc21)Nc1ccc(Cl)cc1 -33.3%
NS(=O)(=O)c1cc(-c2nn[nH]n2)c(NCc2cccs2)cc1Cl 2.17%
Cc1cccc(NS(=O)(=O)c2ccc3c(c2)CCN3C(=O)C2CC2)c1C -35%
CCN(C(=O)c1cn(C)c(=O)c2ccccc12)c1cccc(C)c1 -19.1%
Cn1nnnc1SCCCNCc1ccccc1OCc1ccc(F)cc1 -19.8%
O=C1CCCc2c(O)cccc21 4.18%
COC(=O)c1c(NC(=O)/C=C/c2ccc(OC)cc2)sc2c1CCC2 2.14%
COc1ccc(CNC(=O)CSc2ncc3c(n2)-c2cc(Cl)ccc2N(C)S3(=O)=O)cc1 -10.6%
CCOC(=O)Cn1c(-c2cccs2)cc2cc(Cl)ccc21 -21.8%
CC(C)c1cnc2c(c1SCC(=O)Nc1ccc(C(N)=O)cc1)c(=O)n(C)c(=O)n2C 1.65%
CCN1C(=O)c2ccccc2Sc2ccc(NC(=O)c3cccc(C)c3)cc21 -32.2%
Cc1ccc(NC(=O)Nc2cccs2)c(C)c1 2.15%
CN(CCCNC(=O)c1cc2c(=O)n(C)c3ccccc3c2s1)Cc1ccccc1 5.21%
O=C(Cn1c(=O)n(-c2ccccc2)c(=O)c2ccc(C(=O)NCc3ccc4c(c3)OCO4)cc21)Nc1ccc(F)c(Cl)c1 -32.4%
CCOC(=O)c1cc(OC(=O)c2ccccc2OC)n(-c2ccccc2)n1 -10.9%
COc1ccc(N(C(=O)c2cccc(C)c2)S(=O)(=O)c2ccc3c(c2)n(C)c(=O)n3C)cc1 -2.75%
COc1ccc(CCNC(=O)c2ccc3c(c2)N(Cc2cccc(Cl)c2)C(=O)c2ccccc2S3=O)cc1OC (stereo unspecified) -7.32%
CCc1ccc(NC(=O)CN2C(=O)C3CCCN3c3ccc(S(=O)(=O)N(CC)CC)cc32)cc1 (stereo unspecified) -20.7%
COc1ccc(CCNc2ncnc3onc(-c4ccc(Cl)cc4)c23)c(OC)c1 -28.5%
Cn1cc(S(=O)(=O)N2CCCCCC2)cc1C(=O)N1CCN(c2ccccc2F)CC1 -20.2%
Cc1ccc(N(CC(O)Cn2c3ccccc3c3ccccc32)S(=O)(=O)c2ccc(F)cc2)cc1 (stereo unspecified) -54.7%
CCC(Cc1c(I)cc(I)c(N)c1I)C(=O)O (stereo unspecified) -3.26%
Cc1ccccc1Nc1sc(C(=O)c2ccccc2)c(N)c1S(C)(=O)=O -29%
CCc1ccc(NC(=O)Cn2c(=O)n(CCCC(=O)NCc3ccccc3Cl)c(=O)c3ccccc32)cc1 -7.33%
Cc1cc(NC(=O)CSc2nc(-c3cccc(F)c3)nc3c2c(=O)n(C)c(=O)n3C)no1 -5.46%
Cc1ccc(-c2nc3cc(NC(=O)Cc4ccc(Cl)cc4)ccc3o2)cc1 6.74%
COc1ccc2c(Sc3ccc(C)cc3)c(C(=O)NCC(C)c3ccccc3)[nH]c2c1 (stereo unspecified) 14.1%
CCOC(=O)c1ccc(N2CC3=C(C2=O)C(c2ccc(OC)cc2)NC(=O)N3C)cc1 (stereo unspecified) 1.57%
Nc1c(C(=O)Nc2ccc(C(F)(F)F)cc2)sc2nc(-c3cccs3)ccc12 -8.96%
COc1ccccc1-c1nnc(C2CCN(S(=O)(=O)c3ccc(CC(C)C)cc3)CC2)o1 -23.8%
O=C(CCc1ccccc1)NCc1ccc2c(c1)CCN2C(=O)c1ccccc1 12.9%
Cn1cc(C(=O)O)c(=O)c2cc(S(=O)(=O)N3CCOCC3)ccc21 -26.8%
CC(=O)N1CCc2c(sc3c2c(=O)n(CCc2ccccc2)c(=O)n3CC(=O)Nc2ccccc2F)C1 -22.5%
COc1ccccc1NC(=O)c1oc2ccccc2c1NC(=O)Cc1cccs1 -6.77%
COc1cccc(NC(=O)Cn2c(=O)n(-c3ccccc3)c(=O)c3ccc(C(=O)NCc4ccc5c(c4)OCO5)cc32)c1 -24.4%
COc1ccc(-n2c(SCC(=O)c3ccc(Cl)cc3)nc3c([nH]c4ccccc43)c2=O)cc1 -0.121%
COc1ccccc1N1CCN(c2ccc(=O)n(CC(=O)Nc3cc(F)ccc3C)n2)CC1 -15.1%
Cc1ccc2oc(=O)c3cc(C(=O)Nc4ccc(C)c(F)c4)sc3c2c1 -8.43%
CCc1nnc(NC(=O)CSc2nc3c([nH]c4ccccc43)c(=O)n2-c2ccc(F)cc2)s1 -19.4%
COc1ccccc1/C=C/c1onc(C)c1S(=O)(=O)N1CCC(C(=O)N2CCC(C)CC2)CC1 -2.81%
Cc1c(Cl)cccc1NC(=O)c1cc(S(=O)(=O)N2CCCCC2)cn1C -24.9%
Cc1cccn2c(=O)cc(COc3ccc(NC(=O)C(C)C)cc3)nc12 -6.9%
Cc1ccc(-n2nc(C)c3c(C)cc(=O)n(CC(=O)Nc4cc(Cl)ccc4C)c32)cc1 -7.78%
Nc1ccc2oc(-c3ccccc3Br)nc2c1 -26%
Cc1ccccc1NC(=O)CSc1nc2ccc(NC(=O)CCc3ccccc3)cc2s1 -17.1%
COC(=O)c1sccc1S(=O)(=O)N(CC(=O)Nc1ccccc1C)c1ccc(Cl)cc1 -27.8%
COc1ccc(N(CC(=O)N2CCN(c3ccccc3F)CC2)S(=O)(=O)c2c(C)noc2C)cc1 -13.2%
COc1ccccc1-c1nc2c(c(SCc3cc(C)ccc3C)n1)Cc1c(CO)cnc(C)c1O2 -35%
